# Measurements from publication PMC4336329 (PLoS ONE, 2015).
# About 14,000 (4.5%) of roughly 310,000 compounds showed an effect of 50% or more. The effect is printed as a negative number. Some of the results follow.
# Molecular target: human ether-à-go-go-related gene (hERG) potassium channel (human, UniProt Q12809)
# Test: primary screen, population patch clamp on CHO cells stably expressing hERG
# 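Note: peak tail current of the secondary pulse compared with the same well before compound.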
# human ether-à-go-go-related gene (hERG) potassium channel, sequence (Q12809 whole entry, looked up): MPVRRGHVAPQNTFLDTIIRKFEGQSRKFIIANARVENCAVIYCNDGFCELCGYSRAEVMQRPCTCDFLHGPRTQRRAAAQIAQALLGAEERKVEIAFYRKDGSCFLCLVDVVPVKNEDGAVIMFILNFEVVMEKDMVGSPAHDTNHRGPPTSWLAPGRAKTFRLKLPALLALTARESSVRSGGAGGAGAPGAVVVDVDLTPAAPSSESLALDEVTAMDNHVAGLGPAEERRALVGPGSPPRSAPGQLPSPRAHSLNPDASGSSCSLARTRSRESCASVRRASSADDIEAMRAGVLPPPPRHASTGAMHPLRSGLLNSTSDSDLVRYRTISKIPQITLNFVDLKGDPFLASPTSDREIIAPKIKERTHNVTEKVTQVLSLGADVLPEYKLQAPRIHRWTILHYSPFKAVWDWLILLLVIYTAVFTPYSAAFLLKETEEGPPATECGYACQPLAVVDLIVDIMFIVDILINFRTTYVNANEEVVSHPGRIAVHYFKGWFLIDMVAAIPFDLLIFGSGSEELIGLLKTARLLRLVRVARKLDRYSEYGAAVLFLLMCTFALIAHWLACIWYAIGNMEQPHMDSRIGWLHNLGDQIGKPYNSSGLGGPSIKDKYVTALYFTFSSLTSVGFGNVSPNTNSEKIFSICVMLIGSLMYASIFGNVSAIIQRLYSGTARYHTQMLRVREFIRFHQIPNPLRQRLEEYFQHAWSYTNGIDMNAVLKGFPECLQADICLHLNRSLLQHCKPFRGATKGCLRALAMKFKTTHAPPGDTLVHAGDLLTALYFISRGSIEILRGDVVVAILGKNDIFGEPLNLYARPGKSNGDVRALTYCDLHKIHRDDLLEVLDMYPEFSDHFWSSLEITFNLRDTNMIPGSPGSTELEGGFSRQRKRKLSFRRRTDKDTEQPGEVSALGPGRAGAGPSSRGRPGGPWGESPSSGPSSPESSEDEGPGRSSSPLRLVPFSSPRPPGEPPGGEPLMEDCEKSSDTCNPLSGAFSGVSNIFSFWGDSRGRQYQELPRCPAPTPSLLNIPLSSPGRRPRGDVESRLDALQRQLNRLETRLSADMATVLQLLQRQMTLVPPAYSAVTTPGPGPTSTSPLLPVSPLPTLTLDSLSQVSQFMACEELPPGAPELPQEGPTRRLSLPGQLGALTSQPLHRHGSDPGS
row,SMILES,"hERG current change (%, negative = inhibition) at 10uM [%]"
1,COc1cc(-n2c(N)c(C(=O)NCc3ccco3)c3nc4ccccc4nc32)cc(OC)c1OC,16.8
2,NC(=O)COC(=O)CCCc1c[nH]c2ccccc12,10.1
3,CN(CC(=O)Nc1ccccc1C(F)(F)F)C(=O)c1ccc(N2C(=O)CCC2=O)cc1,5.47
4,Cc1oc2cc3oc(=O)c(CCC(=O)NCCCN4CCOCC4)c(C)c3cc2c1C,-5.14
5,CC1(C)OC(=O)C(=NNc2ccccc2C(=O)O)C(=O)O1,16.3
6,COc1ccc(C(=O)Nc2cc3c(cc2C#N)OCO3)cc1S(=O)(=O)N1CCN(C)CC1,11.8
7,CCOc1ccc(CC2S/C(=N/c3ccccn3)NC2=O)cc1 (stereo not shown),-3.79
8,COc1cccc(C(=O)OCC(=O)c2ccc(Br)s2)c1,-2.08
9,CCOc1cc(C2NC(=O)c3ccccc3O2)ccc1OC (stereo not shown),17.1
10,Cc1ccc2nc(N3CCC(C(=O)NC4CCCCC4)CC3)sc2c1,13.4
11,CCSc1nc(C)c(C(C)=O)cc1C#N,-1.41
12,O=C(COC(=O)CCC1CCCC1)Nc1ccccc1OC(F)F,11.8
13,Cc1cccc(-n2c(N)c(C(=O)N3CCN(C)CC3)sc2=S)c1,0.595
14,COc1ccc(S(=O)(=O)NC(C)C(=O)NCc2ccncc2)cc1OC (stereo not shown),15.7
15,CCN(C(=O)CN1CCCCC1C)c1c(N)n(Cc2ccccc2)c(=O)[nH]c1=O (stereo not shown),-23.1
16,COc1ccc(C(=O)NNC2=Nc3cccc4cccc2c34)cc1,23.9
17,CCC(=O)NC(=S)Nc1ccc(S(=O)(=O)NC(C)=O)cc1,12.1
18,Oc1ccc[n+](CCCCC[n+]2cccc(O)c2)c1.[Br-],8.07
19,CCOc1ccc(N(C)S(=O)(=O)c2ccc3[nH]cc(C(=O)NCCCOC)c(=O)c3c2)cc1,3.51
20,COC(=O)C1CN(S(=O)(=O)c2ccccc2)CCN1S(=O)(=O)c1ccccc1 (stereo not shown),-12.7
21,C=CCn1c(COc2ccccc2)nnc1SCC(=O)N/N=C/c1cc(Cl)ccc1O,0.558
22,Cc1ccc2c(c1)C1CN(C)CCC1N2S(=O)(=O)c1ccc(C#N)cc1 (stereo not shown),-72.8

row,SMILES,"hERG current change (%, negative = inhibition) at 10uM [%]"
1,O=[N+]([O-])c1cc2c(c(CSc3nnc4ccccn34)c1)OCOC2,-12.4
2,Cc1ccc(-c2cc(-c3ccc(C)cc3)[n+](C)o2)cc1.[O-][Cl+3]([O-])([O-])[O-],-68.4
3,CC(C)(C)NC(=O)CSc1nnc(C2CC2)n1-c1ccccc1,1.48
4,CC(=O)Cc1nsc(NC(=O)c2c(-c3ccccc3Cl)noc2C)n1,14.4
5,C=CCn1c(SCC(=O)c2[nH]c(C)c(C(=O)OC)c2C)nc2scc(-c3ccc(OC)c(OC)c3)c2c1=O,22.5
6,COc1cc(OC)c(OC)cc1CNC(=O)c1ccc(COc2ccccc2)cc1,16.2
7,CCC(C)(C)NC(=O)Cn1c(-c2ccc(C)cc2)noc1=O,13.5
8,COc1cc(C2c3c(n[nH]c3C)C(=O)N2c2ccc(Br)cc2)ccc1O (stereo not shown),3.14
9,COC(=O)CC1(C(=O)OC)Oc2ccc(Br)cc2C(=O)N1c1cccc(Cl)c1Cl (stereo not shown),10.2
10,COc1ccc(/C(O)=C2/C(=O)C(=O)N(CCN(C)C)C2c2cccnc2)cc1C (stereo not shown),1.58
11,Cc1nn(CC(=O)Nc2nnc(C(C)C)s2)c(=O)c2ccccc12,35.5
12,CC(C)N(Cc1ccccc1)C(=O)C1CCCN(c2ncnc3c2nc2n3CCCCC2)C1 (stereo not shown),-44.3
13,COc1ccc(CNc2ccc3c(c2)ncn3C)cc1OC,15.8
14,CC(=O)N(CCO)Cc1cc2cc(C)cc(C)c2[nH]c1=O,8.65
15,CCCCn1c(O)c(/C=N/N2CCCCC2c2cccnc2)c(=O)[nH]c1=S (stereo not shown),-33.7
16,Cc1cccc(NC(=O)C2CCN(S(=O)(=O)c3ccc4c(c3)C(C)(C)C(=O)N4C)CC2)c1C,21.5
17,CCC(CC)C(=O)Nc1cccc(C(=O)Nc2ccc(OC)cc2[N+](=O)[O-])c1,10.8
18,CN(CCOc1ccccc1)C(=O)C1CCC(=O)N(CCCN2CCOCC2)C1 (stereo not shown),9.16
19,CSc1ncccc1C(=O)Nc1cccc(S(=O)(=O)N(C)c2ccccc2)c1,-18.6
20,CCCNC(=O)N1CCN(S(=O)(=O)c2ccc(C)cc2)CC1,1.4
21,COc1ccc2c(c1)O[C@H](c1ccc3c(c1)OCO3)[C@@H](O)C2=O,-1.54
22,Cc1cccc(C2CC(c3ccccc3)Nc3nc(N)nn32)c1 (stereo not shown),-15.5

row,SMILES,"hERG current change (%, negative = inhibition) at 10uM [%]"
1,COc1ccc(S(=O)(=O)N2Cc3ccccc3CC2C(=O)Nc2ccc3c(c2)OCO3)cc1 (stereo not shown),0.444
2,CCOc1ccc(NC(=NCc2ccc3c(c2)OCO3)SC2CC(=O)N(c3ccc(C(=O)O)cc3)C2=O)cc1 (stereo not shown),15.2
3,CC(C)NCCCOc1ccc(C(C)(C)c2ccccc2)cc1.O=C(O)C(=O)O,7.21
4,CN(C)c1cccc(C(=O)OCCNC(=O)c2cccc(S(=O)(=O)N3CCOCC3)c2)c1,-8.21
5,COc1cc(NC(=O)c2nnn(Cc3ccc(SC)cc3)c2N)cc(OC)c1,-7.72
6,CCc1ccc2c(c1)C(=O)C(=O)N2CCS(=O)(=O)c1ccccc1,6.76
7,O=C(O)c1ccccc1C(=O)Nc1c(-c2ccccc2)nc2ccccn12,8.42
8,COC(=O)c1ccc(C(=O)OC)c(NS(=O)(=O)c2ccc(NC(C)=O)cc2)c1,-9.32
9,COc1ccc2nc(NC(=O)CN3CCOCC3)sc2c1,-14.8
10,COc1ccc(-c2coc3cc(O)cc(O)c3c2=O)cc1OC,5.23
11,CCOc1cc(/C=C2\C(=O)ON=C2c2ccccc2)cc(Br)c1O,-8.18
12,Cc1cn([C@H]2C[C@H](N=[N+]=[N-])[C@@H](CO)O2)c(=O)[nH]c1=O,13.9
13,CC(C)NC(=O)CSc1ccccc1C(=O)NCc1ccc2c(c1)OCO2,-2.28
14,O=C(NCc1ccccc1)c1cc(=O)c2ccccc2o1,-0.107
15,COc1ccc(NC(=O)COc2ccc(C(=O)OCC(=O)N(C(C)C)C(C)C)cc2OC)cc1,-1.01
16,CC(=O)N/N=C(\C)c1cccc(NC(=O)c2cccs2)c1,-11.1
17,COc1ccc(C(=O)NNC(=O)C(=O)NC2CCCCC2)cc1,-2.26
18,COc1ccc(C(=O)NCC(=O)N/N=C/c2ccc(C)o2)cc1OC,16.4
19,Fc1cccc(C2NC(=S)NC3=C2N2CCC3CC2)c1 (stereo not shown),-1.84
20,COc1ccc(NC(=O)CSc2nnc(CNC(=O)COc3ccc(Cl)cc3)o2)c(OC)c1,-12.9
21,CCCCc1ccc(-c2csc(/C(C#N)=C\c3ccco3)n2)cc1,-5.37
22,COc1ccc([C@H]2CC(=O)C=C(c3cc(Cl)ccc3OC)C2)cc1,7.4

row,SMILES,"hERG current change (%, negative = inhibition) at 10uM [%]"
1,O=C(CSc1n[nH]c(=O)[nH]c1=O)N/N=C/c1ccccc1,8.14
2,COc1ccc(CNC(=O)c2nnn(CC(=O)Nc3cc(C)cc(C)c3)c2N)cc1,11.9
3,Cc1c(OCC(=O)NC(Cc2ccc(Cl)cc2)C(=O)O)ccc2c(-c3ccccc3)cc(=O)oc12 (stereo not shown),6.68
4,COc1ccccc1C(=O)N(C)c1nnc(-c2ccccc2)s1,-5.79
5,Cc1onc(-c2c(Cl)cccc2Cl)c1C(=O)NCc1ccc(S(N)(=O)=O)cc1,5.06
6,Cc1ccc(NC(=O)N2CCC(c3ccccc3)C2)cc1C (stereo not shown),-16.7
7,Cc1ccc(N2CCN(CCCCN3C(=O)C4CCCN4C3=O)CC2)cc1.Cl (stereo not shown),-23.9
8,COc1ccc(S(=O)(=O)N2CCOC2CNC(=O)C(=O)NCC(C)C)cc1OC (stereo not shown),1.8
9,N#Cc1ccc(C(=O)Nc2cccc3cccnc23)c(F)c1,6.49
10,Cc1ccc(/C=C/C(=O)O)cc1S(=O)(=O)NCCCC(=O)O,3.13
11,COc1ccc(-c2nc(CS(=O)(=O)CC(=O)Nc3cccc(C(C)=O)c3)c(C)o2)cc1,3.62
12,CC(C)C(=O)NC(=S)Nc1ccccc1C(=O)NC1CCCCC1,7.39
13,Cc1cccc(N2CN(Cc3ccco3)CNC2=S)c1C,5.48
14,O=C(CSc1nnc(COc2ccc(Br)cc2)o1)N1CCOCC1,-17
15,CC(Nc1nc(C(F)(F)F)nc2ccccc12)c1cccs1 (stereo not shown),21.4
16,COc1ccccc1N(CC(=O)NC(C)(C)C)C(=O)C1CSC(=O)C1 (stereo not shown),26.2
17,COc1ccc(C)cc1S(=O)(=O)NC1CCCCC1C (stereo not shown),5.07
18,COc1ccc(C)cc1NC(=O)Cc1c(C(=O)O)n(C)c2ccccc12,28.9
19,Cc1ccc(CNC(=O)c2ccc(Cn3nc(C)cc3C)o2)cc1,-19.1
